# Laboratory results taken from PubChem BioAssay (NCATS).
# Inconclusive means that the source gave no clear call. Such entries were picked first, then a sample of the others. For some assays here: Potencies of inconclusive entries are left out as doubtful fits. Calls of active or inactive are those of the source. Unless noted, calls come from the whole dose curve; as a rule, active = well fitted curve in the direction sought with a large enough effect; inconclusive = small, poorly fitted or top-dose-only effect, or another doubt; inactive = no such curve, though single readings can be large; an effect the other way counts as inactive or inconclusive.
# Tests used:
# [1] = Cell Viability - Jurkat (AID 426;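 active = dose-dependent loss of cell ATP signal giving a full or clear fitted curve, ranked by lower potency value; inconclusive = weak partial curve or response only at the top dose; inactive = no loss of viability signal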;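 note: potency is the fitted concentration of half-maximal effect; cells exposed to compound for 40 hours at 37 °C before ATP read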); conditions: qHTS
# How it was run: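 Jurkat (Clone E6-1) cells, 5000/well in complete medium, exposed to compounds for 40 hr at 37C; intracellular ATP measured by CellTiter-Glo luminescence after 20 min at room temperature. AC50 from Hill fits.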
# [2] = molecular target: Mitogen-activated protein kinase 10 (Mus musculus) (UniProt Q61831); assay: JNK3 AlphaScreen Assay (AID 530; active = well fitted curve in either direction with a large enough effect, not every such curve was filed as active; inconclusive = small, poorly fitted or top-dose-only effect, or another doubt;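 note: kinase came from lysate of stimulated human HepG2 cells; signal reports phosphorylation of biotinylated GST-cJun 1-79 at Ser73 with 10 µM ATP; potency is the fitted concentration of half-maximal effect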); conditions: JNK3 lysate, c-Jun phosphorylation; activity change, negative = inhibition: at 57.1 µM (top of the series)
# How it was run: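 Inhibitors reduce antibody binding to phosphorylated biotin-cJun, lowering AlphaScreen luminescence. Lysates from HepG2 cells pre-activated by IL-1beta plus TNF-alpha supplied JNK3; compounds were titrated.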
# [3] = Cellular Toxicity (caspase-3) Mesangial (AID 660); conditions: mesangial cells, normalized: DMSO 0%, 100 µM tamoxifen 100%; at 91.7 µM (top of the series);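 note: combined caspase 3 and 7 activity read by Caspase-Glo luminescence; cells exposed to compound for 16 h before the caspase read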
# How it was run: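 Human renal glomerular mesangial cells, 1000/well, 5 h at 37 C before 16 h compound treatment. Caspase-Glo 3/7 luminescence after 20 min; normalized to DMSO and 100 uM tamoxifen, AC50 from Hill fit.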
# [4] = molecular target: Cytochrome P450 3A4 (Homo sapiens) (UniProt P08684); assay: qHTS Assay for Activators of Cytochrome P450 3A4 (AID 885); conditions: recombinant CYP3A4, Luciferin-PPXE luminescence, 60 min; series mostly up to 57.1 µM; note: nearly all actives have a fitted effect of over 65% in size
# Chain of UniProt P08684 (P08684 whole entry, looked up): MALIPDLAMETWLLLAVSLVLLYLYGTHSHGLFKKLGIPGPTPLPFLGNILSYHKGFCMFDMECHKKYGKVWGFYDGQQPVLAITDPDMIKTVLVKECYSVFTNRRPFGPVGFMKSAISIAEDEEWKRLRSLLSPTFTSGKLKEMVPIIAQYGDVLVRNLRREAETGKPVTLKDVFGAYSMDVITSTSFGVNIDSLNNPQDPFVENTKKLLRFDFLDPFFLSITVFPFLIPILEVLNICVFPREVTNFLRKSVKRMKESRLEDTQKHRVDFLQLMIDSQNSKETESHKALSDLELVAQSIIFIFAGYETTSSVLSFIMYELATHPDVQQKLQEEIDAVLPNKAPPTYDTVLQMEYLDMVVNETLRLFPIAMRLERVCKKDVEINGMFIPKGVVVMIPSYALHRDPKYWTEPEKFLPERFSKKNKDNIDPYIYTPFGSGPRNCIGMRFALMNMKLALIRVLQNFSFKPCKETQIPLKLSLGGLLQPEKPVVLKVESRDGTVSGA
# How it was run: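 Human CYP3A4 (20 nM) with Luciferin-PPXE at 25 uM (its KM) in 200 mM KPO4; 10 min compound preincubation, then NADPH regeneration and 60 min reaction at RT. Luciferin read by luminescence; normalized to 57 uM ketoconazole full inhibition.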
# [5] = Cell Viability - LYMP2-001 (AID 921); conditions: LYMP2-001 lymphoblastoid cell viability; series mostly up to 92.2 µM; note: potency is the fitted concentration of half-maximal effect; nearly all actives have a fitted effect of over 70% in size
# How it was run: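 Human lymphoblastoid cells (Coriell), 2500 per well, were preincubated 5 hr at 37 C, then exposed to compounds in complete medium for 24 hr at 37 C. Cellular ATP was read by CellTiter-Glo luminescence; AC50 from Hill fits of concentration-response data.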
# [6] = Cell Viability - LYMP1-002 - Assay at 16 hr (AID 948); conditions: LYMP1-002 lymphoblastoid cell viability; series mostly up to 92.2 µM; note: potency is the fitted concentration of half-maximal effect
# How it was run: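 Human lymphoblastoid cells (LYMP1-002), 2500/well, were preincubated 5 hr at 37 C, then exposed to compounds for 16 hr at 37 C in complete medium. Cellular ATP was read by CellTiter-Glo luminescence after 30 min at room temperature; AC50 from Hill fits.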
# [7] = MultiTox-Fluor Cytotoxicity Assay - LYMP1-002 - Live Cells (AID 955); conditions: LYMP1-002 lymphoblastoid live-cell protease fluorescence viability; series mostly up to 46.1 µM; note: potency is the fitted concentration of half-maximal effect
# How it was run: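 Human lymphoblastoid LYMP1-002 cells, 2500/well, treated 16 h at 37 C in complete medium. Live-cell protease activity via GF-AFC fluorescence (Ex/Em 405/510) after 60 min reagent incubation; AC50 from Hill fits.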
# [8] = MultiTox-Fluor Cytotoxicity Assay - LYMP1-002 - Dead Cells (AID 960); conditions: LYMP1-002 lymphoblastoid cells, dead-cell protease fluorescence; cytotoxicity (dead cells): at 46.1 µM (top of the series); note: potency is the fitted concentration of half-maximal effect; nearly all actives have a fitted effect of over 60% in size
# How it was run: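 Human lymphoblastoid LYMP1-002 cells, 2500/well, treated 16 h at 37 C; dead-cell protease cleavage of bis-AAF-R110 read by fluorescence (485/520); normalized to DMSO and 15 uM tetraoctylammonium bromide; AC50 from Hill fit.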
# [9] = Cell Viability - LYMP1-003 - Assay at 40 hr (AID 964); conditions: LYMP1-003 lymphoblastoid viability; series mostly up to 92.2 µM; note: potency is the fitted concentration of half-maximal effect; nearly all actives have a fitted effect of over 60% in size
# How it was run: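 LYMP1-003 human lymphoblastoid cells, 2500/well, preincubated 5 h at 37 C, then treated with compound for 40 h at 37 C. Intracellular ATP read by CellTiter-Glo luminescence after 30 min at room temperature; AC50 from Hill-equation fits.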
# [10] = Cell Viability - LYMP2-005 (AID 967); conditions: LYMP2-005 lymphoblastoid cell viability; series mostly up to 92.2 µM; note: potency is the fitted concentration of half-maximal effect
# How it was run: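 CellTiter-Glo luminescence (cellular ATP) read-out; LYMP2-005 lymphoblastoid cells, 2500/well, 5 h pre-incubation, then 24 h compound exposure at 37 C in complete medium. Tetraoctylammonium bromide positive control; AC50 by standard Hill fit.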
# [11] = Cell Viability - LYMP2-011 (AID 969); conditions: LYMP2-011 lymphoblastoid cells viability; series mostly up to 92.2 µM; note: potency is the fitted concentration of half-maximal effect; nearly all actives have a fitted effect of over 60% in size
# How it was run: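 2500 cells/well in complete medium, compound-treated 24 h at 37 C. Viability read as intracellular ATP by CellTiter-Glo luminescence after 30 min at room temperature. AC50 from Hill fits of qHTS concentration-response data.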
# [12] = Cell Viability - LYMP2-023 (AID 975); conditions: LYMP2-023 lymphoblastoid cell viability; series mostly up to 92.2 µM; note: potency is the fitted concentration of half-maximal effect; nearly all actives have a fitted effect of over 55% in size
# How it was run: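 LYMP2-023 human lymphoblastoid cells, 2500/well, preincubated 5 hr at 37 C, then compound-treated 24 hr at 37 C in complete medium. CellTiter-Glo luminescence (ATP) after 30 min at room temperature; AC50 from Hill-equation fits; tetraoctylammonium bromide positive control.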
# [13] = Cell Viability - LYMP2-025 (AID 976); conditions: LYMP2-025 lymphoblastoid cell viability; activity change, negative = cytotoxicity: at 92.2 µM (top of the series); note: potency is the fitted concentration of half-maximal effect
# How it was run: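 Human lymphoblastoid LYMP2-025 cells, 2500/well, exposed 24 h at 37 C in complete medium in 1536-well qHTS. Viability as cellular ATP by CellTiter-Glo luminescence; AC50 from Hill fits of concentration-response data.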
# [14] = Cell Viability - LYMP2-002 (AID 977); conditions: LYMP2-002 lymphoblastoid cell viability, qHTS; activity change, negative = cytotoxic: at 92.2 µM (top of the series); note: potency is the fitted concentration of half-maximal effect
# How it was run: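 Luminescent ATP readout (CellTiter-Glo, 30 min room temperature) after 24 h compound exposure at 37 C of a human lymphoblastoid line, 2500 cells/well. AC50 values derived by standard Hill fitting of qHTS concentration-response data.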
# [15] = Cell Viability - LYMP2-007 (AID 979); conditions: LYMP2-007 lymphoblastoid cell viability; activity change, negative = cytotoxicity: at 92.2 µM (top of the series);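 note: potency is the fitted concentration of half-maximal effect; cells exposed to compound for 24 h before reading; nearly all actives have a fitted effect of over 60% in size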
# How it was run: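 Human lymphoblastoid LYMP2-007 cells (2500/well) preincubated 5 h at 37 C, then treated 24 h at 37 C in complete medium. Viability by CellTiter-Glo ATP luminescence after 30 min at room temperature; AC50 from Hill fits.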
# [16] = Cell Viability - LYMP2-010 (AID 981); conditions: LYMP2-010 lymphoblastoid cell viability, qHTS; series mostly up to 92.2 µM; note: potency is the fitted concentration of half-maximal effect; nearly all actives have a fitted effect of over 55% in size
# How it was run: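 Human lymphoblastoid LYMP2-010 cells (2500/well) treated 24 h at 37 C in complete medium; viability read as intracellular ATP by CellTiter-Glo luminescence. AC50 from Hill fits of concentration-response data; tetraoctylammonium bromide positive control.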
# [17] = Cell Viability - LYMP2-020 (AID 986); conditions: activity change, negative = viability loss: at 92.2 µM (top of the series); note: potency is the fitted concentration of half-maximal effect; nearly all actives have a fitted effect of over 55% in size
# How it was run: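 Human lymphoblastoid LYMP2-020 cells (2500/well) preincubated 5 h at 37 C, then treated 24 h at 37 C. Viability measured as intracellular ATP by CellTiter-Glo luminescence after 30 min at room temperature; AC50 from Hill fits.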
# Tags give direction and shape of the fitted curve.
smiles,measurement,setting,value
CC/C=C/C/C=C/C/C=C/CCCCCCCC(=O)OCC,Potency,[1],inconclusive [single point]
same,Potency,[2],"inconclusive [activator, full curve, poor fit]"
same,caspase-3 activation,[3],inconclusive: 39.4%
same,Potency,[4],inactive
same,Potency,[5],"inconclusive [cytotoxic, partial curve, poor fit]"
same,Potency,[6],"inconclusive [cytotoxic, partial curve]"
same,Potency,[7],"inconclusive [cytotoxic, single point]"
same,Potency,[8],"inconclusive [falling, full curve, poor fit]"
same,Potency,[9],"inconclusive [cytotoxic, partial curve]"
same,Potency,[10],active: 31.6 µM
same,Potency,[11],"inconclusive [cytotoxic, partial curve, poor fit]"
same,Potency,[12],active: 39.8 µM
same,Potency,[13],"inconclusive [cytotoxic, partial curve, poor fit]"
same,Potency,[14],"inconclusive [cytotoxic, partial curve, poor fit]"
same,Potency,[15],active: 31.6 µM
same,Potency,[16],active: 25.1 µM
same,Potency,[17],active: 39.8 µM
